Results taken from PubChem BioAssay AID1030 (National Center for Advancing Translational Sciences (NCATS), 2008).
Among all 220,000 compounds or so, about 16,000 (7.3%) were called active. Inconclusive means that the source gave no clear call. Such entries were picked first, then a sample of the others. Calls come from the whole dose curve; as a rule, active = well fitted inhibition curve with a large enough effect (not every such curve was filed as active); inconclusive = small, poorly fitted or top-dose-only effect, or another doubt; inactive = no such curve, though single readings can be large or run the other way. Potencies of inconclusive entries are left out as doubtful fits. More than one record can exist for a structure, and the calls need not agree.

The molecules below were run against Aldehyde dehydrogenase 1A1 (Homo sapiens) (UniProt P00352) (assay: qHTS Assay for Inhibitors of Aldehyde Dehydrogenase 1 (ALDH1A1)). Conditions: Purified ALDH1A1, NADH fluorescence, propionaldehyde substrate; series mostly up to 75.3 µM; activity, negative = inhibition: at the top concentration.
Potency is the fitted concentration of half-maximal effect; tags give direction and shape of the fitted curve.
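Throughout, for activity, negative = inhibition: plate controls were no enzyme wells and a reference inhibitor.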

Sequence of UniProt P00352 (P00352 whole entry, looked up): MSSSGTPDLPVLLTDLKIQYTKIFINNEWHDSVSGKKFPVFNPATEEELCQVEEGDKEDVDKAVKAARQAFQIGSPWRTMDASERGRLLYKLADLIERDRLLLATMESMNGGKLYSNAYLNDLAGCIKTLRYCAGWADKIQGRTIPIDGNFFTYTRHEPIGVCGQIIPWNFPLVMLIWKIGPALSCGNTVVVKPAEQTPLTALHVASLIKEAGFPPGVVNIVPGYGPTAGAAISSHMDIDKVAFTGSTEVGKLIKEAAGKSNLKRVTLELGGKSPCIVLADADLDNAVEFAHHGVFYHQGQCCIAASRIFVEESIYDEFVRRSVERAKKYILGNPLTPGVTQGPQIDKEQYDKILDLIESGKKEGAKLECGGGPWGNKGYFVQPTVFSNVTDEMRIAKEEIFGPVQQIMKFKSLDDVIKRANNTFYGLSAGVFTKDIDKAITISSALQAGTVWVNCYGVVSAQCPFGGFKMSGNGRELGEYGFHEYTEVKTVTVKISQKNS

Structure (SMILES) | Potency | activity, negative = inhibition
Cn1c(=O)n(C)c2cc([N+](=O)[O-])c(N3CCN(C(=O)c4ccccc4Cl)CC3)cc21 | inconclusive [inhibitor, partial curve] | 
O=C(CN1CCN(Cc2ccccc2)CC1)Nc1ccc([N+](=O)[O-])cc1C(=O)Nc1ccccc1F | inconclusive [inhibitor, single point] | 
COc1ccc(-n2c(Cc3cccn3C)nnc2SCC(=O)Nc2nccs2)cc1 | inconclusive [inhibitor, partial curve] | 
CN1CCN(c2ccc([N+](=O)[O-])cc2C(=O)c2ccc(Cl)cc2)CC1 | inconclusive [inhibitor, single point] | 
Nc1ccccc1C(=O)N/N=C1/C2CN3CCN(C2)CC1(Cc1ccccc1)C3 | inconclusive [inhibitor, partial curve] | 
COc1ccc(C(=O)/C=C/c2ccc(OC)c(Cn3nnc4ccccc43)c2)cc1 | active: 11.2 µM | 
Cc1c(C#N)c(N=CN(C)C)c(C(=O)c2ccccc2)n1-c1ccc(Br)cc1 |  | inactive: 4.72%
Clc1ccc(-c2nc3nc4ccccc4nc3n2Cc2ccco2)cc1 | inconclusive [inhibitor, partial curve] | 
COC(=O)C1=NN(c2ccc(C)cc2)C2(S1)SC(C(C)=O)=C(C)N2c1ccccc1 (centres undefined) |  | inactive: -6.57%
COc1ccc(S(=O)(=O)N(CCc2ccccc2)CC(=O)NC(C)C)cc1 | inconclusive [inhibitor, partial curve] | 
c1ccc2c(c1)N1CCN=C1N2CCN1CCCCC1 | inconclusive [inhibitor, single point] | 
Cc1c(C(=O)OC2CCC(C)CC2)[nH]c2c1C(=O)CCC2 (centres undefined) | inconclusive [inhibitor, single point] | 
Cn1c(N)c(C(=O)COC(=O)CCCc2c[nH]c3ccccc23)c(=O)n(C)c1=O |  | inactive: -4.53%
COC(=O)c1oc2ccc(Cl)cc2c1N | inconclusive [inhibitor, partial curve] | 
CCOC(=O)c1c(-c2ccccc2)csc1NC(=O)C(C)NCc1ccco1 (centres undefined) | inconclusive [inhibitor, single point] | 
Cc1cc(C(=O)CN2C(=O)NC3(CCCCC3)C2=O)c(C)n1C |  | inactive: 5.91%
COc1ccc2c(c1)[n+](=O)c(C(C)=O)c(C)n2[O-] | inconclusive [inhibitor, single point] | 
CC1=C(C(=O)OCc2ccccc2)C(c2ccc3ccccc3c2)NC(=O)N1CCCCCC(=O)O (centres undefined) | inactive | 
COc1ccc2[nH]c3c(c2c1)CCn1c-3nc2ccccc2c1=O | inconclusive [inhibitor, single point] | 
Cc1cc(C)nc(NC=C2C(=O)OC(C)(C)OC2=O)n1 | active: 3.98 µM | 
c1ccc(C(CCN2CC3CCC(CC3)C2)c2ccccc2)cc1 |  | inactive: 0.887% [at 13.5 µM]
CC(C)(C)C(=O)COc1ccccc1[N+](=O)[O-] | active: 20 µM | 
CCOC(=O)c1ccc2c(c1)nc(SCC(=O)c1cc3ccccc3o1)n2CC | inconclusive [inhibitor, single point] | 
CCCc1nc2ccccc2c(=O)n1-c1c(C)n(C)n(-c2ccccc2)c1=O |  | inactive: -0.509%

Structure (SMILES) | Potency | activity, negative = inhibition
COc1ccc(C(=O)NCS(=O)(=O)c2ccc(C)cc2)cc1 | inconclusive [inhibitor, single point] | 
CC(=O)N1CCC[C@@]2(CCN(Cc3ccc(C#N)cc3)C2)C1 |  | inactive: -12.8%
CCN(CC)S(=O)(=O)c1ccc(Oc2ccccc2)cc1 |  | inactive: 3.36%
O=c1[nH]c2ccccc2cc1-c1nnn(-c2ccc(F)cc2)n1 | inconclusive [inhibitor, partial curve] | 
Cc1ccc2nc(NC3=NC(CC(=O)O)C(=O)N3)nc(C)c2c1 (centres undefined) |  | inactive: -13.5%
Cc1nn(-c2cccc3cccnc23)c(=O)c2ccccc12 |  | inactive: -0.837%
O=C(CN1CCN(c2ccccn2)CC1)Nc1ccc2ccccc2c1 | inconclusive [inhibitor, partial curve, poor fit] | 
O=c1[nH]c(CN(CCO)CCO)nc2c1C1(CCCCC1)Cc1ccccc1-2 | inconclusive [inhibitor, single point] | 
O=C1c2ccccc2C(=O)N1OCc1cccc(Cl)c1 |  | inactive: -1.13%
O=C(CN1CCOCC1)NC1C2CC3CC(C2)CC1C3 (centres undefined) | inconclusive [inhibitor, full curve] | 
CC1=C(C#N)C(C)C2=C(CC(C)(C)CC2=O)N1 (centres undefined) | inconclusive [inhibitor, partial curve] | 
CC1(C)OC(C(O)(c2cc(C(F)(F)F)cc(C(F)(F)F)c2)c2cc(C(F)(F)F)cc(C(F)(F)F)c2)C(C(O)(c2cc(C(F)(F)F)cc(C(F)(F)F)c2)c2cc(C(F)(F)F)cc(C(F)(F)F)c2)O1 (centres undefined) |  | inactive: 17.4% [at 13.5 µM]
COc1ccc(CNC(=O)CCc2nc(-c3ccccc3F)no2)c(OC)c1 | active: 10 µM | 
COc1ccc(-n2c(Cc3cccn3C)nnc2SCC(=O)NC2CCCCC2)cc1 |  | inactive: -12.9%
Cc1nc2ccccc2c(=O)n1NC(=O)Nc1ccccc1 |  | inactive: 7.78%
CC(=O)c1ccc(OC2C(O)COC2/C=C/c2ccc(Cl)cc2)cc1 (centres undefined) | active: 3.98 µM | inactive: 18.5% [at 13.5 µM]
CCOC(=O)c1sc(=S)n(C)c1NC(=O)c1ccccc1Cl | active: 31.6 µM | 
O=C(NCC(c1cccs1)N1CCOCC1)c1ccccc1NS(=O)(=O)c1cc([N+](=O)[O-])ccc1Cl (centres undefined) |  | inactive: 6.12%
O=C1c2ccccc2C(=O)N1CN(C(=O)COc1ccccc1)c1ccc(F)cc1 | inconclusive [inhibitor, single point] | 
N#CC1=C(N)Oc2cc(N)ccc2C1C1CC=CCC1 (centres undefined) | inconclusive [inhibitor, partial curve] | 
O=C1c2ccccc2C(=O)C1c1ccc2ccccc2n1 | active: 25.1 µM | 
COc1cc(CNCc2ccncc2)cc(Br)c1OCc1ccccc1F |  | inactive: -3.48%
S=c1ccss1 | active: 2.24 µM | 
CCCCNc1nc2ccccc2n1CC(=O)Nc1c(C)cccc1CC |  | inactive: -4.2%
